Source: publication PMC4336329 (PLoS ONE, 2015)
About 2,200 (0.71%) of roughly 310,000 compounds showed an effect of 50% or more. The effect is printed as a negative number. Some of the results follow.

Target: human ether-à-go-go-related gene (hERG) potassium channel (human, UniProt Q12809)
Experiment: primary screen, population patch clamp on CHO cells stably expressing hERG

Sequence of human ether-à-go-go-related gene (hERG) potassium channel (Q12809 whole entry, looked up): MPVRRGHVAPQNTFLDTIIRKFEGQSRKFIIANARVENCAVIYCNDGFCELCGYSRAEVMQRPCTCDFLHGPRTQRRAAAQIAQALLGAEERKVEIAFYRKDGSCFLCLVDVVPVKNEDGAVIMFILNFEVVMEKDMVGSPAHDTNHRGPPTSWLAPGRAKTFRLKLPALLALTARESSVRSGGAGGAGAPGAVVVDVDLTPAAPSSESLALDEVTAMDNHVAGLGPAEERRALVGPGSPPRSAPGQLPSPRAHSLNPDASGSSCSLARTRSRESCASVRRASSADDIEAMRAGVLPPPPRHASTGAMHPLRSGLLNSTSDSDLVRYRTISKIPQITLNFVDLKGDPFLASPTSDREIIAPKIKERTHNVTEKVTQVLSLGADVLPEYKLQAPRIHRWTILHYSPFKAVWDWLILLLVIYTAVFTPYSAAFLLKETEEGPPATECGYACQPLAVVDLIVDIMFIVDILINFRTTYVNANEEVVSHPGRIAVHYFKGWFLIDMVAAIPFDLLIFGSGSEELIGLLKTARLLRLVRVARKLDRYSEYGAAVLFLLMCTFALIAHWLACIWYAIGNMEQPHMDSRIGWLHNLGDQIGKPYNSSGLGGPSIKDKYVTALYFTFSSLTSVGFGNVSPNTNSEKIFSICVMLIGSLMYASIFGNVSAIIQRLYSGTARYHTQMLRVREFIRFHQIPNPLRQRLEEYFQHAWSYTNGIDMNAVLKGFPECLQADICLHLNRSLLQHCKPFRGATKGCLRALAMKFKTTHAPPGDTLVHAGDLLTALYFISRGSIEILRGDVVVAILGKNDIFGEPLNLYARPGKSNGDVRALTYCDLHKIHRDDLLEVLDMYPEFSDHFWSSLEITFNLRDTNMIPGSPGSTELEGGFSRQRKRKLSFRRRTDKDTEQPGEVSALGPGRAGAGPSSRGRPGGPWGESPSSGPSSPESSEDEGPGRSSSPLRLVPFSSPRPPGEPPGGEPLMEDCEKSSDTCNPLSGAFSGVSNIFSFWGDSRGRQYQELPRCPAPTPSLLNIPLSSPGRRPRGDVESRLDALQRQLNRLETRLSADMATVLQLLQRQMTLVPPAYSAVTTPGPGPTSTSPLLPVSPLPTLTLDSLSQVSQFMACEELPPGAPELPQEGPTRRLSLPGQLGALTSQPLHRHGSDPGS

| SMILES | hERG current change (%, negative = inhibition) at 1uM |
| --- | --- |
| COc1ccc(CCNC(=O)C2CCC(CNc3c(N4CCCC4)c(=O)c3=O)CC2)cc1OC (stereo not drawn) | 11.5% |
| C/C(CC(=O)Nc1ccc(Cl)cc1C(F)(F)F)=N\NC(=O)c1cccs1 | 1.13% |
| COc1cc(C(=O)Nc2nc(-c3cc(C)ccc3C)c(C)s2)ccc1OCC(=O)Nc1ccc(F)cc1 | 3.66% |
| COc1cc(C2=NOC(C(=O)N3CCCCCC3)C2)cc(OC)c1OC (stereo not drawn) | 7.02% |
| O=C(NCC1CCCO1)c1cncc(Br)c1 (stereo not drawn) | 15.2% |
| c1ccc2c(CNCCN3CCOCC3)cccc2c1 | 6.83% |
| COC(=O)[C@H](CCSC)NC(=O)NCCc1ccccc1F | 7.86% |
| COc1ccc(NC2CCCN(C(=O)CN3CCOC3=O)C2)cc1OC (stereo not drawn) | 9.15% |
| COc1ccc(-c2oc3ncnc(NCCCO)c3c2-c2ccc(OC)cc2)cc1 | 9.83% |
| Cn1cc(C(=O)N2CCCCC2)c(=O)c2cc(S(=O)(=O)N3CCCC3)ccc21 | 15.6% |
| CCCN1CCN(C(=O)CN2C(=O)COc3ccc(S(=O)(=O)N(CC)CC)cc32)CC1 | 16.2% |
| Cc1nn(C)c(C)c1S(=O)(=O)NC1CCCc2ccccc21 (stereo not drawn) | 4.33% |
| Cc1ccc(C(=O)C2(C)N(O)C(C)C(c3cccs3)=[N+]2[O-])cc1 (stereo not drawn) | 8.7% |
| CC(Sc1nnc(N)s1)C(=O)Nc1nccs1 (stereo not drawn) | 12.7% |
| COc1ccc(C(=O)C2CCCN(Cc3ccc(C)s3)C2)c(OC)c1 (stereo not drawn) | -2.87% |
| c1coc(-c2nc(-c3ccco3)c(-c3ccco3)nc2-c2ccco2)c1 | 4.93% |
| O=C(O)C1CC=CCC1C(=O)NCc1ccccc1 (stereo not drawn) | -2% |
| CCOC(=O)CCC(NC(=O)c1ccc(NCN2C(=O)c3ccccc3C2=O)cc1)C(=O)OCC (stereo not drawn) | 9.84% |
| O=C1OCCC1Sc1nc2cc(Cl)ccc2s1 (stereo not drawn) | 2.87% |

| SMILES | hERG current change (%, negative = inhibition) at 1uM |
| --- | --- |
| CC(C)Cc1nnc(NC(=O)c2cc(-c3ccccc3)nc3ccccc23)s1 | 14.2% |
| Cc1ccc(C(=O)OCn2nnc3ccccc3c2=O)cc1[N+](=O)[O-] | 9.93% |
| COc1cc(C(=O)Nc2ccc(S(=O)(=O)N3CCc4ccccc43)cc2)cc(OC)c1OC | 9.53% |
| O=C(c1ccc(Cl)c(S(=O)(=O)Nc2ccccc2C(=O)N2CCc3ccccc3C2)c1)N1CCc2ccccc2C1 | 14.7% |
| Cc1ccc(Oc2nccc(-c3ccc(Cl)cc3)n2)cc1 | 17.4% |
| c1ccc2ncc(-n3cnnn3)cc2c1 | 12.6% |
| O=C(N/N=C/c1ccc(O)cc1)c1nc(-c2ccccc2)n(-c2ccccc2)n1 | 0.583% |
| CCN(C(=O)COC(=O)c1cc([N+](=O)[O-])ccc1N1CCOCC1)c1ccccc1 | -7.18% |
| CN(C)C(=O)Oc1ccc2c(c1)O/C(=C\c1cccc([N+](=O)[O-])c1)C2=O | 12.3% |
| COC(=O)COc1ccc(=O)n(-c2ccccc2)n1 | 6.13% |
| COc1ccc(NC(=O)Cn2c(=O)sc3ccccc32)cc1 | 3.38% |
| Cc1cc(C)c(CSc2ncnc3nc[nH]c23)c(C)c1 | 1.08% |
| O=C1[N-]C(=O)C(c2ccccc2)(c2ccccc2)N1.[Na+] | 11.6% |
| O=C(c1cccs1)c1coc2ccc(O)c(CN3CCOCC3)c12 | -9.55% |
| CCOC(=O)C1(Cc2cccc(OC)c2)CCN(CC(O)CO)CC1 (stereo not drawn) | 8.94% |
| CCC(=O)Oc1ccc2c(c1)OC1(OC(C)=O)OC(C)CC1=C2C (stereo not drawn) | 8.94% |
| CCc1c(O)nc(SCC(=O)Nc2nc3ccccc3s2)n(-c2ccc(C)cc2)c1=O | 9.57% |
| COc1cccc(NC(=O)COc2nc3ccccc3nc2C)c1 | 10.2% |
| COc1cc(/C=C2/C(=O)N(c3cccc(Br)c3)N=C2C)cc(OC)c1O | 15.3% |

| SMILES | hERG current change (%, negative = inhibition) at 1uM |
| --- | --- |
| CC1CCCN(CCOc2cccc(Oc3ccccc3)c2)C1.O=C(O)C(=O)O (stereo not drawn) | 7.11% |
| Cc1ccc(C(=O)NC(=S)N2CCCC2)cc1 | 13.4% |
| CCCCn1nnc(NC(=O)c2ccc([N+](=O)[O-])cc2Cl)n1 | -2.81% |
| CO/N=C/c1ccc(Oc2ccc([N+](=O)[O-])cc2[N+](=O)[O-])c(OC)c1 | 11.5% |
| O=C(CCNS(=O)(=O)c1ccccc1)N1CCOCC1 | 16.5% |
| CCOc1ccc(S(=O)(=O)N2CCC(C(=O)OC(C)C(=O)N(C)C3CCCCC3)CC2)cc1 (stereo not drawn) | 0.0103% |
| N#Cc1nc(-c2ccccc2F)oc1NCCc1ccccn1 | 1.93% |
| O=C(Oc1ccc2c(c1)OCC2=O)c1ccc(Cl)cc1 | 2.37% |
| CS(=O)(=O)N1CCCC(C(=O)Nc2ccccc2)C1 (stereo not drawn) | 15.9% |
| COC(=O)CN=Cc1c(C)[nH]n(-c2ccccc2)c1=O | 1.8% |
| O=S(=O)(c1ccc(F)cc1)N1CCN(C(=S)NCc2ccccc2)CC1 | 12.3% |
| Cc1cccc(C(=O)c2ccccc2C(=O)O)c1O | 17.9% |
| O=C(CCN1C(=O)c2cccc3cccc(c23)C1=O)N1CCOCC1 | 10% |
| C=C(C)Cn1c(SCC(=O)O)nnc1-c1ccc(OC)cc1 | 8.41% |
| Cc1cc(NC(=O)c2ccccc2F)n(C(C)(C)C)n1 | 10.6% |
| Cc1ccc(C)c(-c2csc(NC(=O)c3cnccn3)n2)c1 | 1.78% |
| Cc1cccc(N=C2NC(=O)C(CO)(CO)S2)c1 | 17.4% |
| CCOc1ccccc1-c1cc(-c2ccc(OC)cc2)nc2c1c(=O)n(C)c(=O)n2C | 2.22% |
| CC(=O)N(c1ccc(Br)cc1)C1C=CS(=O)(=O)C1 (stereo not drawn) | 1.97% |
